Results: PubChem BioAssay AID504832 (National Center for Advancing Translational Sciences (NCATS), 2011)
Hit rate of the full screen: of about 310,000 compounds, about 18,000 (5.8%) were called active. This list was built around the results that the source calls inconclusive (neither active nor inactive); the mix of calls is not that of the screen. The call rests on the fitted dose curve; in most records, active means well fitted inhibition curve with a large enough effect; inconclusive means small, poorly fitted or top-dose-only effect, or another doubt; inactive means no such curve, though single readings can be large or run the other way. Potencies of inconclusive entries are left out as doubtful fits.
On the % scale 0 is the no-effect control and ±100 the full control effect; potency means the concentration at half of the fitted maximal effect; tags describe the fitted curve by direction and shape.

Assay: Primary qHTS for delayed death inhibitors of the malarial parasite plastid, 48 hour incubation
Details: P. falciparum luciferase growth in erythrocytes; series mostly up to 28.7 µM; activity change, negative = inhibition: at the top concentration
Summary of the method: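 Cell-based growth assay: transgenic P. falciparum expressing firefly luciferase, cultured in red cells within RPMI 1640 containing 0.5% w/v Albumax, 24 mM bicarbonate and gentamycin. A drop in luciferase activity indicates inhibition.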
For `CCn1c2ccccc2c2cc(CNCc3ccc(OC)cc3OC)ccc21`, the Potency was inconclusive [inhibitor, single point]. In the case of `CCn1c(=O)n(CC)c2cc(NC(=O)CSc3ccc([N+](=O)[O-])cn3)ccc21`, the Potency is reported as inconclusive [inhibitor, single point]. With `Cc1c(C(=O)N2CCN(c3ncccn3)CC2)oc2c(Cl)cccc12` the Potency was inconclusive [inhibitor, partial curve, poor fit]. With `Cc1ccn2c(c1)nc(=O)c1cc(S(=O)(=O)N3CCC(C)CC3)ccc12` the Potency was inconclusive [inhibitor, partial curve]. With `COc1ccc2nc(NCCCNC(=O)c3cc(OC)c(OC)c(OC)c3)c(C#N)cc2c1` the Potency was inconclusive [inhibitor, partial curve, poor fit]. With `CCOC(=O)c1oc2cc(O)c(CC)cc2c(=O)c1-c1cscn1` the “activity change, negative = inhibition” value was inactive: 5.26%. For `CSc1cccc(N2CC(C(=O)Nc3ccccc3N3CCCC3)CC2=O)c1` (stereo not drawn), the Potency was inconclusive [inhibitor, single point]. In the case of `Cc1ccc(C(=O)CCC(=O)NC2=NCCS2)cc1`, the Potency is reported as inconclusive [inhibitor, single point]. In the case of `CCOC(=O)c1ccc(NC(=S)N(CCN2CCCCCC2)Cc2cccs2)cc1`, the Potency is reported as inconclusive [inhibitor, single point]. In the case of `COc1cc2c(C)nc3c(c(C)nn3-c3ccccc3)c2cc1OC`, the “activity change, negative = inhibition” value is reported as inactive: 7.36%. For `CCc1cc(=O)oc2cc(C)cc(OCC(=O)C(C)(C)C)c12`, the Potency was inconclusive [inhibitor, full curve]. With `NNc1ncnc2sc3c(c12)CCC3` the Potency was inconclusive [inhibitor, single point]. With `CCC(C(=O)O)C1CCC(C)C(C(C)C(O)C(C)C(=O)C(CC)C2OC3(C=CC(O)[C@@]4(CC[C@](C)(C5CC[C@@](O)(CC)C(C)O5)O4)O3)C(C)CC2C)O1` (stereo partly drawn) the Potency was active: 0.426 µM. In the case of `COC(=O)c1cccc(NC(=O)c2nn(C)c(=O)c3ccccc23)c1`, the Potency is reported as inconclusive [inhibitor, single point]. For `CSc1ccccc1NC(=O)c1ccc([N+](=O)[O-])cc1`, the Potency was inconclusive [inhibitor, partial curve, poor fit]. In the case of `Cc1ccc(C(=O)N/C(=C\C=C\c2ccccc2)C(=O)NCc2ccco2)cc1`, the “activity change, negative = inhibition” value is reported as inactive: -12.8%. With `Cc1cc(NC(=O)C(C)Oc2ccc(C(C)(C)C)cc2)no1` (stereo not drawn) the Potency was inconclusive [inhibitor, single point]. For `CSc1ncc(S(=O)(=O)c2ccccc2)c(=O)[nH]1`, the “activity change, negative = inhibition” value was inactive: -2.65%. With `NCC(=O)CCC(=O)O` the Potency was inconclusive [inhibitor, single point]. In the case of `CCOC(=O)c1c(C)nc2cc(C)ccn12`, the “activity change, negative = inhibition” value is reported as inactive: 45.8%. For `CCN(CC)C(=O)CSc1nnc(-c2ccccn2)n1-c1ccc(C)c(C)c1`, the “activity change, negative = inhibition” value was inactive: -28.7%. In the case of `COc1ccccc1C(=O)N1CCC(N2CCN(c3ccccc3OC)CC2)CC1`, the Potency is reported as inconclusive [inhibitor, partial curve, poor fit]. In the case of `COc1ccc(Cn2cccc(NC(=O)Nc3cccc(C#N)c3)c2=O)cc1`, the “activity change, negative = inhibition” value is reported as inactive: -8.27%. With `COc1ccc(NC(=O)CN(C)CC(=O)c2c(C)[nH]c3ccccc23)cc1` the Potency was inconclusive [inhibitor, single point]. For `COc1ccc(NS(=O)(=O)c2cccc(C(=O)NCC3(N4CCOCC4)CCCCC3)c2)cc1`, the Potency was inconclusive [inhibitor, partial curve, poor fit]. With `Cc1nn(Cc2ccccc2)c(C)c1/C=N/NC(=O)c1ccccc1O` the Potency was inconclusive [inhibitor, full curve]. In the case of `COc1ccc(C(=O)OCc2cc(C)ccc2C)cc1S(=O)(=O)N1CCCC1`, the Potency is reported as active: 7.38 µM. In the case of `Cc1ccc(OCCSc2nc3ccccc3n2CCC(=O)O)cc1`, the “activity change, negative = inhibition” value is reported as inactive: -17.2%. With `CCOC(=O)C1CCN(c2nc3ccccc3nc2C(C#N)C(=O)OC(C)C)CC1` (stereo not drawn) the Potency was inconclusive [inhibitor, partial curve, poor fit]. For `COC(=O)c1c(C)oc(C)c1S(=O)(=O)NC(c1ccccc1)c1ccccc1`, the Potency was inconclusive [inhibitor, single point]. With `Cc1ccc(OCC(=O)Nc2ccc(-n3cnnn3)cc2)c(C)c1` the Potency was inconclusive [inhibitor, single point]. With `Cc1ccc(C(=O)COC(=O)c2ccc3c(c2)C(=O)N(c2cccc4ncccc24)C3=O)cc1` the “activity change, negative = inhibition” value was inactive: 0.564%. With `Cc1ccc(-c2cc(C(=O)Nc3sc4c(c3C(=O)NCc3ccco3)CCC4)[nH]n2)c(O)c1` the Potency was inconclusive [inhibitor, single point]. With `Cc1cc(C)c(S(=O)(=O)Nc2ccccc2C(=O)N2CCOCC2)c(C)c1` the Potency was inconclusive [inhibitor, partial curve, poor fit]. For `O=C(CN1CCSc2ccccc21)NCCCc1ccccc1`, the “activity change, negative = inhibition” value was inactive: 85.2%. With `COc1ccc(N2CCN(c3ncnc4c3nnn4Cc3ccccc3Cl)CC2)cc1` the “activity change, negative = inhibition” value was inactive: 3.02%. In the case of `COC(=O)c1ccc(Cn2nc([N+](=O)[O-])c(Br)c2C)cc1`, the Potency is reported as inconclusive [inhibitor, partial curve, poor fit]. With `CN1CCN(C(=O)c2ccc(S(=O)(=O)c3ccc(Br)cc3)cc2)CC1` the “activity change, negative = inhibition” value was inactive: -20%. With `COc1ccc(NC(C)=O)cc1NC(C)C(=O)Nc1ccc(S(=O)(=O)N2CCCCC2)cc1` (stereo not drawn) the Potency was inconclusive [inhibitor, partial curve, poor fit]. With `Cc1cccc(NCCC(=O)c2ccc([N+](=O)[O-])cc2)c1C` the “activity change, negative = inhibition” value was inactive: 6.05%. In the case of `NC(=O)CC(NC(=O)Cc1cccc2ccccc12)c1ccc(NCCc2ccccc2F)c([N+](=O)[O-])c1` (stereo not drawn), the Potency is reported as inconclusive [inhibitor, single point]. For `Cc1ccc(Sc2cc(NCCCO)c([N+](=O)[O-])c3nonc23)cc1`, the Potency was inconclusive [inhibitor, partial curve]. For `C/C(=N\NC(=O)c1cccc(S(=O)(=O)N2CCOCC2)c1)c1ccc(OC(F)F)cc1`, the Potency was inconclusive [inhibitor, partial curve, poor fit]. With `Cc1ccc(N(CC(=O)Nc2ccc(F)c(Cl)c2)S(=O)(=O)c2c(C)noc2C)cc1` the Potency was inconclusive [inhibitor, single point]. For `C=C(C)[C@@H]1CC[C@]2(C(=O)O)CC[C@]3(C)C(CCC4[C@@]5(C)CC[C@H](O)C(C)(C)C5CC[C@]43C)C12` (stereo partly drawn), the Potency was inconclusive [inhibitor, single point]. In the case of `CCN1CCN(C(=O)c2cc(-c3ccco3)nc3ccccc23)CC1`, the “activity change, negative = inhibition” value is reported as inactive: 0%. For `Cc1cc(-n2c(C)cc(C(=O)CSc3nnnn3-c3ccc(Cl)cc3)c2C)no1`, the Potency was active: 11.7 µM. With `O=C(c1nc2ccccn2c1CN1CCCC(c2nc3ccccc3o2)C1)N1CCCC1` (stereo not drawn) the “activity change, negative = inhibition” value was inactive: -26.6%. For `COc1ccc(C(=O)NCc2nnc(SCC(=O)NC3=NCCS3)n2C)cc1`, the “activity change, negative = inhibition” value was inactive: 10.4%. In the case of `O=C(c1cccc(N2C(=O)C3CC=CCC3C2=O)c1)N1CCN(c2ccccc2)CC1` (stereo not drawn), the Potency is reported as active: 11.7 µM. With `Cc1ccc(C2=NCCn3nc4cc([N+](=O)[O-])ccc4c32)cc1` the Potency was inconclusive [inhibitor, single point]. In the case of `COCC1CCN(Cc2nc(COc3ccccc3)no2)C1` (stereo not drawn), the Potency is reported as inconclusive [inhibitor, partial curve]. For `O=S(=O)(Nc1ccc(C(F)(F)F)cn1)c1ccccc1`, the “activity change, negative = inhibition” value was inactive: -10.3%. For `COc1ccc(S(=O)(=O)N2CCN(S(=O)(=O)c3ccc4c(c3)OCCO4)CC2)cc1C`, the Potency was inconclusive [inhibitor, full curve, poor fit]. For `CCN1CCN(CC(O)COC(C)C)CC1` (stereo not drawn), the Potency was inconclusive [inhibitor, single point]. In the case of `COc1ccc(CCC(=O)N/N=C\c2cccs2)cc1`, the Potency is reported as active: 9.28 µM. In the case of `CCCCCNC(=O)c1ccc(NS(=O)(=O)c2ccc3[nH]c(=O)[nH]c3c2)cc1`, the Potency is reported as inconclusive [inhibitor, single point]. For `CCOC(=O)c1ccc(NC(=O)CSc2nc(NC(=O)c3ccccc3)c3c(C)c(C)oc3n2)cc1`, the Potency was inconclusive [inhibitor, single point]. For `N/C(=N\OC(=O)CC1CCCCC1)c1ccc(Cl)cc1`, the “activity change, negative = inhibition” value was inactive: 7.13%. For `Cc1cccc(NS(=O)(=O)c2ccc(C)c(C(=O)OCC(=O)Nc3cc(C)on3)c2)c1`, the Potency was inconclusive [inhibitor, partial curve, poor fit]. For `COc1ccc(-n2c(C)cc(C(=O)COC(=O)c3ccc(O)cc3O)c2C)cc1`, the Potency was active: 7.38 µM. In the case of `Cc1c(Cl)cccc1-n1c(SCC(=O)N2CCC(C(=O)O)CC2)nnc1-c1ccncc1`, the Potency is reported as inconclusive [inhibitor, partial curve]. For `COC(=O)C1CCN(Cc2cc(=O)oc3cc(C)c(Cl)cc23)CC1`, the “activity change, negative = inhibition” value was inactive: -10.1%. With `CCOc1ccc(/C=C2\SC(=S)N(CCCC(=O)NCCCN3CCOCC3)C2=O)cc1` the Potency was inconclusive [inhibitor, partial curve]. For `CC(C(=O)Nc1cccc(Br)c1)c1ccc([N+](=O)[O-])cc1` (stereo not drawn), the Potency was active: 10.4 µM. With `COc1ccc(-c2nn(C)c(=O)c3ccccc23)cc1CNC(=O)C1CCCCC1` the Potency was inconclusive [inhibitor, single point]. With `O=C(C[n+]1ccccc1)N/N=C/c1ccc(Cl)c(Cl)c1` the Potency was active: 8.28 µM. In the case of `COc1ccc(C(=O)N=C2SC3CS(=O)(=O)CC3N2Cc2ccccc2)cc1OC` (stereo not drawn), the Potency is reported as inconclusive [inhibitor, partial curve, poor fit].
